Cell count data for 4 compounds are collected here from the supplement of paper PMC4604168 (melanoma cell lines).

This is one part of the list. Repeats are few or missing, and single values can be far off.
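Also: cells treated in 1,536-well plates, then fixed and DAPI-stained, with nuclei counted from automated high-throughput microscope images.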

For this experiment, the system named is A375. The experiment is described as follows: cell count relative to DMSO control; melanoma cells; higher = more viable cells. The conditions noted are these: library dose: standard library concentration; 72 h.
With `COc1cc2c(Oc3ccc4[nH]c(C)cc4c3F)ncnc2cc1OCCCN1CCCC1` [cediranib] + O=C(O)C(=O)Nc1sc2c(c1C(=O)O)CCNC2 [TCS401] (first compound 2 µM, partner dose 8.33333 µM), the cell count stood at 194%.
The result for `Cc1ccc(NC(=O)c2cccc(N(C)C)c2)cc1NC(=O)c1ccc(O)cc1` + COC(=O)c1sccc1S(=O)(=O)Nc1ccc(Nc2ccccc2)cc1OC [GSK0660] (first compound 10 µM, partner dose 5 µM) reads 81%; that for `CC(C)(C)c1cnc(CSc2cnc(NC(=O)C3CCNCC3)s2)o1` + CCc1ccc(CCOc2ccc(CC3SC(=O)NC3=O)cc2)nc1 [pioglitazone] (first compound 0.05 µM, partner dose 10 µM), 94.3%.
Next, `CCc1ccc(CCOc2ccc(CC3SC(=O)NC3=O)cc2)nc1` (centres undefined) [pioglitazone] + COc1cc2ncnc(Nc3ccc(Oc4ccccc4)cc3)c2cc1OC [SrcI1] (first compound 10 µM, partner dose 10 µM): 160%.
